According to PubChem BioAssay AID1963576 (National Center for Advancing Translational Sciences (NCATS), 2024):
Out of some 46,000 compounds screened, about 60 (0.1%) were called active. Inconclusive results (about 3%) are left out. Calls follow the shape of the dose curve; as a rule, active = well fitted inhibition curve with a large enough effect; inconclusive = small, poorly fitted or top-dose-only effect; inactive = no such curve, though single readings can be large or run the other way. The list shows a part of the results.

Test: Primary qHTS assay for Inhibitors of ovarian cancer metastasis using an organotypic tumor microenvironment (TME) model. Also: nearly all actives have a fitted effect of over 65% in size.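 As to activity change, negative = inhibition: plate controls were DMSO wells for no effect and tomatine positive control wells for full effect.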
Conditions: SKOV3ip1-GFP adhesion/invasion on 3D omental model, fluorescence; series mostly up to 45.8 µM; activity change, negative = inhibition: at the top concentration
Method in brief: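 A 3D layer of primary human omental fibroblasts, mesothelial cells, fibronectin and collagen I, grown 48 hr, received SKOV3ip1-GFP cells in serum-free medium plus compounds at 0.36-46 umol/L. After 2 hr RT and 16 hr 37 C, fixed adherent GFP cells were counted; normalized to DMSO and tomatine.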

Activity change, negative = inhibition, inactive:
CCc1ccc(NS(=O)(=O)c2ccc3oc(=O)c4ncn(CC)c4c3c2)cc1 -7.53%, O=C(Nc1nnc(-c2cc(Cl)ccc2Cl)o1)c1ccc2c(c1)OCCO2 7.12%, Cc1ccc(NC(=O)N2CCc3cc(S(=O)(=O)N4CCC(C)CC4)ccc32)cc1 0.682%, CCN(C(=O)Cn1c(=O)n(CCCS(=O)(=O)C2CCCCC2)c(=O)c2ccccc21)c1cccc(C)c1 1.85%, CCn1c(CN2CCOCC2)nc2cc(NC(=O)c3ccccc3[N+](=O)[O-])ccc21 -0.163%, CCC1CN(C(=O)N2CCC(C(=O)NCCc3cc(OC)ccc3OC)CC2)c2ccccc2O1 (configuration not stated) -5.13%, CCN(CC)S(=O)(=O)c1ccc2c(c1)N(CC(=O)N1CCN(c3cccc(Cl)c3)CC1)C(=O)CO2 -3.27%, CN(C)C1(CNC(=O)COc2ccc([N+](=O)[O-])cc2)CCCCC1 11.6%, Cc1cc(Cl)ccc1NC(=O)Cn1nc(C)c2c(C)n(-c3ccccc3)nc2c1=O 15.6%, Cc1ccc(Cl)cc1Nc1nn2c(=O)c3ccc(C(=O)Nc4ccc(F)cc4)cc3nc2s1 -8.38%, CC(=O)Nc1cc(-c2nc3cc(Cl)ccc3o2)ccc1C -10.7%, CC1CCN(C(=O)Cn2c(=O)n(CCCCCC(=O)NCc3ccccc3Cl)c(=O)c3sccc32)CC1 -5.8%, CCOC(=O)c1ccccc1NC(=O)N1CCN(Cc2cc(=O)n3nc(-c4ccccc4)sc3n2)CC1 8.28%, Cc1[nH]n(-c2ccccc2)c(=O)c1C(c1cc(Cl)ccc1O)c1c(C)[nH]n(-c2ccccc2)c1=O 0.732%, COCCCNc1nc2c(S(=O)(=O)c3ccccc3)nnn2c2ccc(Cl)cc12 1.06%, CC1=C(C(=O)Nc2ccccc2)C(c2ccccc2C)n2nc(SCC(=O)c3ccc(C)cc3)nc2N1 (configuration not stated) -2.71%, CCc1ccc(NC(=O)CCS(=O)(=O)c2cc3c(cc2Cl)NC(=O)CO3)cc1 19.1%, COC(=O)c1c(-c2cccs2)csc1NC(=O)c1ccc(Br)cc1 6.05%, COC(=O)c1c(-c2cccs2)csc1NC(=O)c1cccc(Cl)c1 -14.5%, Cc1cccc(NC(=O)CSc2nc(-c3cccs3)cc(C(F)(F)F)c2C#N)c1C -4.38%, CCOc1ccc(-c2cc(CCCC(=O)NCCc3ccc(Cl)cc3)no2)cc1 4%, Cc1cccc(-c2c3c(=O)n(C)c(=O)n(C)c3c3c(C)nc4ccccc4n23)c1 8.15%, Cc1ccc(C(=O)N2CCc3cc(CNC(=O)CSc4ccccc4)ccc32)cc1 -3.73%, Cc1ccc(-c2cc(C(=O)NCc3cnn(C)c3C)c3ccccc3n2)cc1C -5.75%, CCN(c1ccccc1)S(=O)(=O)c1cc(Br)cc2c1N(C(=O)C1CC1)CC2 15.4%, CCCNC(=O)C1=CC(c2ccc3c(c2)OCO3)=NS(=O)(=O)N1C -7.9%, COc1cc(OC)c(OC)cc1CN1CCc2nc(Nc3ccc4c(c3)OCCO4)ncc2C1 5.31%, COc1ccc(CNC(=O)C(=O)Nc2c3c(nn2-c2ccccc2)CSC3)cc1 -4.49%, CC=C1NC(=O)[C@H]2CSSCCC=C[C@H](CC(=O)N[C@H](C(C)C)C(=O)N2)OC(=O)[C@H](C(C)C)NC1=O -15.5%, Cc1c(C(=O)N2CCCCC2)c(S(=O)(=O)NCc2ccc(N(C)C)cc2)c(C)n1C -8.7%, Cc1ccc(-c2cc(N)n(-c3ccc(C)cc3)n2)cc1 -3.09%, CCOc1ccc(C(=O)c2cn(CC(=O)Nc3cccc(OC)c3)c3cc4c(cc3c2=O)OCCO4)cc1 10.8%, COc1ccc(N2CCN(C(CNC(=O)C(=O)NCc3cccnc3)c3cccnc3)CC2)cc1 (configuration not stated) 2.77%, Cc1ccccc1CNC(=O)Cc1ccc(NC(=O)N2CCCCc3ccccc32)cc1 1.16%, Cn1c(=O)c2c(nc(N3CCOCC3)n2Cc2cccc(Br)c2)n(C)c1=O -0.708%, Cc1[nH]n2c(=O)cc(-c3ccc(Cl)cc3)nc2c1-c1ccccc1 0.766%, Cc1cccc(N2CCN(C(=O)C3CCN(C(=O)c4cc5sccc5n4C)CC3)CC2)c1C 1.7%, CCOc1ccc(NC(=O)C2CCN(c3nnc(C)c4c(C)n(-c5ccccc5)nc34)CC2)cc1 8.6%, CCOC(=O)c1c(C)oc2nc(C)nc(N3CCN(c4ccccc4F)CC3)c12 -6.17%, Cc1ccc(-c2[nH]c3c(c2-c2c(-n4cccc4)n(C)c(=O)[nH]c2=O)c(=O)[nH]c(=O)n3C)cc1 -5.96%, COc1ccc(CNC(=O)c2ccc3nc(CCc4ccccc4)oc3c2)cc1 -12%, CSc1ccc(C2CC(=O)Oc3c2c(=O)n(C)c2ccccc32)cc1 (configuration not stated) 1.88%, Cc1ccc(/C=C/c2onc(C)c2S(=O)(=O)N2CCC(C(=O)N3CCOc4ccc(C)cc43)CC2)cc1 9.36%, Cc1c(C(=O)N2CCCC2)oc2c1-c1nn(CC(=O)NCc3ccccc3Br)cc1CC2 -9.99%, Cc1ccc(F)cc1NC(=O)CCc1c(C)nn(-c2ccc(N3CCOCC3)nn2)c1C 67.2%, CC1Cn2c(C(=O)NCCc3ccc(Cl)cc3)cc3cccc(c32)S1 (configuration not stated) 5.08%, Cc1ccc2[nH]cc(S(=O)(=O)c3ccc(C)c(C)c3)c(=O)c2c1 4.7%, CC1CCN(c2nn3c(=O)c(C(=O)NCCc4ccccc4)cnc3s2)CC1 0.356%, Cc1cc(=O)n(C(C)C(=O)N2CCCc3ccccc32)c2c1c(C)nn2-c1ccccc1 (configuration not stated) 2.63%, O=C(CN1C(=O)COc2ccc(S(=O)(=O)N3CCCCCC3)cc21)Nc1cccc(Cl)c1 1.43%, COc1ccc(-c2cc(C(=O)Oc3ccc(C)cc3)c3cc(C)ccc3n2)cc1 4.62%, Cc1nc2scc(C)n2c(=O)c1S(=O)(=O)Nc1ccc(N2CCN(S(C)(=O)=O)CC2)cc1 -7.12%, CC(=O)N1CCc2c(sc3nc(SCC(C)C)n(-c4ccc(C)c(Cl)c4)c(=O)c23)C1 -4.91%, Cc1ccc(-c2nnc(Nc3ccc(OC(F)(F)Cl)cc3)c3ccccc23)cc1S(=O)(=O)NC(C)(C)CO 28.3%, O=C(COc1ccccc1)N(Cc1cccnc1)c1nc2c(F)cccc2s1 -1.11%, O=C(Nc1ccc(-c2nc3cc(NC(=O)c4ccc(F)cc4)ccc3o2)cc1)c1ccc(F)cc1 13.7%, CCc1nn2c(=O)cc(COC(=O)c3ccc(NC(=O)CCc4ccccc4)cc3)nc2s1 1.63%, CCCCn1c(=N)c(S(=O)(=O)c2ccc(C)cc2)cc2c(=O)n3cc(C)ccc3nc21 13.3%, CCCN(CCC)CCCNC(=O)c1cnn(-c2ccc(F)cc2)c1-n1cccc1 -13.5%, COc1cc(/C=C(\C#N)c2nc3ccccc3[nH]2)ccc1OCc1ccc(F)cc1 34.6%, COc1cc(-c2nc(SCC(=O)Nc3ccc(C)cc3)c(-c3ccc(F)cc3)[nH]2)cc(OC)c1OC 5.93%, CCc1nc(SC)ncc1C(=O)N1CCN(c2cc(Cl)ccc2C)CC1 0.148%, CC(NC(=O)C1CCN(S(=O)(=O)c2ccccc2)CC1)c1ccccc1 (configuration not stated) 16.4%, Cc1nn(C(C)C(=O)Nc2ccc(C(C)C)cc2)c(=O)c2c1sc1ccccc12 (configuration not stated) 13.1%, Cc1ccccc1CNC(=O)C1=Cc2ccccc2OC1 4.88%, CCCn1c2ccccc2c2cnn(CC(=O)NCC3CCN(Cc4ccc(F)cc4)CC3)c(=O)c21 -22.4%, CCc1ccccc1NC(=O)c1cc(S(=O)(=O)N2CCc3ccccc32)ccc1F 3.59%, COc1ccccc1CNc1nc(-c2ccco2)nn1C(=O)c1cc(OC)c(OC)c(OC)c1 5.13%, CN(Cc1cnc2nc(N)nc(N)c2n1)c1ccc(C(=O)N[C@@H](CCC(=O)O)C(=O)O)cc1 25%, C#CC(C)(CC)NC(=O)Cn1nnc(-c2ccc(OCc3ccccc3C)cc2)n1 (configuration not stated) 1.47%, Cc1cccc(-c2nn3c(=O)cc(CN4CCN(C(=O)c5ccccc5Br)CC4)nc3s2)c1 -0.666%, COc1ccccc1N1CCN(C(=O)c2cnn(-c3cccc(Cl)c3)c2C2CCN(C(=O)OC(C)(C)C)CC2)CC1 12.7%, CN(C)c1ccc(-c2nnc3n(Cc4ccccc4)c(=O)c4ccccc4n23)cc1 -4.37%, CC(=O)Nc1ccc(NC(=O)CCSCCc2ccccn2)cc1 5.63%, Cc1ccc(NC(=O)c2c(NC(=O)Cc3ccccc3)sc3c2CCCC3)cc1 6.39%, CC(=O)c1cccc(NC(=O)Cn2c(=O)oc3cc(S(=O)(=O)N4CCCC4)ccc32)c1 5.14%, CC(C)(C)c1ccc(Oc2ccc(NC(=O)CCC(=O)OCC(=O)c3ccccc3)cc2)cc1 -1.06%, Cc1ccc2oc(=O)c3cc(C(=O)N4CCN(c5ccccc5F)CC4)sc3c2c1 3.03%, COc1ccc(-n2c(SCC(=O)Nc3cccc(C)c3C)nc3c([nH]c4ccccc43)c2=O)cc1 -11.9%, CN(C)c1ccc(CNC(=O)c2ccc(NC(=O)N3CCCCc4ccccc43)cc2)cc1 -2.34%

outcome, inactive:
COc1ccccc1N1CCN(C(=O)Cn2ncc3ccsc3c2=O)CC1, CC(C)Oc1ccc(CNC(=O)c2ccc(CS(=O)c3cccc(Cl)c3)o2)cc1 (configuration not stated), COc1cccc(-n2cc(C(=O)Nc3cccc(C(F)(F)F)c3)c3ccccc3c2=O)c1, O=C(NCc1cccs1)c1nn(-c2ccccc2Cl)nc1CO, CCN(c1cccc(C)c1)S(=O)(=O)c1ccc(-n2cccn2)cc1, Cc1nn2c(-c3ccco3)ccnc2c1-c1ccc(Br)cc1, Cc1ccc(C2Nc3cc(C)c(C)cc3-n3c(-c4ccccc4)c4c(=O)n(C)c(=O)n(C)c4c32)o1 (configuration not stated), Cc1ccc(NC(=O)CSc2nc3c([nH]c4ccccc43)c(=O)n2-c2ccccc2)cc1Cl, COc1ccc(C)cc1NC(=O)CCc1c(C)nn(-c2ccc(N3CCCCC3)nn2)c1C, CCC(=O)C1=C(c2ccc(OC)c(OC)c2)N(C(=O)CC)n2c(CC)nnc2S1, CCOc1ccc(CCNC(=O)CN2C(=O)COc3ccc(S(=O)(=O)N4CCCCCC4)cc32)cc1, N#Cc1c(-n2ncnc2-c2cccc(Br)c2)sc2c1CCCCC2
